The list shows a part of the results. At the low end of the ranking, values are background and their order means little. The protein was read in a cell extract, so binding may be indirect.
biological target: T1, HNF4alpha2 (COS-7 nuclear extract) (UniProt P41235); assay: protein-binding microarray; settings: COS-7 nuclear extract on double-stranded Agilent 4x180k PBM; binding buffer, salt, pH and temperature not given; high values mean tight binding; double strand, one strand shown; sequences stand for … in …GCCTAGGGAGATTAGAGTATCGGTCGA
T1 sequence: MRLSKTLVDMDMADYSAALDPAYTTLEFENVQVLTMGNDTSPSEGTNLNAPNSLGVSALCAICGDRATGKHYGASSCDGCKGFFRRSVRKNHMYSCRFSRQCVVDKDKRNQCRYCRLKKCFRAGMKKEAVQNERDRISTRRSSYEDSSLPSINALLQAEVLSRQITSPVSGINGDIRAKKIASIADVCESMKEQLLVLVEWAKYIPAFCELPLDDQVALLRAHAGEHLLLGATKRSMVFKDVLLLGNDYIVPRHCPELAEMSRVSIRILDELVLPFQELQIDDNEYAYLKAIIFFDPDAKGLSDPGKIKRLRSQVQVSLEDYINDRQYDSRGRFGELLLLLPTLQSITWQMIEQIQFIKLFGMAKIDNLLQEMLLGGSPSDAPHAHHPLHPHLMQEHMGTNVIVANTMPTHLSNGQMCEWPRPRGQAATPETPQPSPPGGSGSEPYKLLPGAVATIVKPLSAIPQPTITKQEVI

Row | Sequence | binding signal (log2 normalized intensity)
1 | GAGGCTTCTGGCCAGGCAGAGCAGGTTCTC | -1.16
2 | AAGTACATTAATATACTGTGTATACAAAGA | 1.36
3 | TCTCCTGTTCTCTTTATTTATTAACTGGAG | 1.51
4 | CTGGAACTCAAAGGTCAAATGACAGAAGCA | 3.02
5 | GCTAAGTGGAGGATTTGGGTGATGTTTGGT | 1.88
6 | CACTCTTGCTATGCAAACAGACTGGCGGCG | -0.994
7 | CTCAGAATCTGCCGATCACTGGCCCAGCTG | -1.1
8 | AAGGGTCTCCTGGAATGCAAGACCTCAGCC | -1.26
9 | CACCTGCCTGAACAAGTCCAGTGACGGGTA | -1.1
10 | CTTTGGACTTGAATTATCCTTATGGTCTCT | 0.855
11 | TTAACCTTTGATCTGTAAGCTCTCTGCTTA | 3.69
12 | TAGAAGAAAGTCTTGATAAGAAACCCAAGA | -1.04
13 | GATGATTCTAAAGGCACAATCAGGGCTAAA | -1.24
14 | TGAACTTCATGTGTGGTGCAGATTCCACAC | 1.03
15 | GGACCTGAGGCTTTTGAGTCAATAATGGAC | 1.21
16 | TCTGAGGGCTACTATCTGAAGACTTCCTCT | -1.27
17 | GTACCTGCGACTGAGCCCTAAGAAATCTCC | -1.1
18 | CCTGCATATCCTGACTGCTGACCTTTAAGC | 4.85
19 | GGCGGGGCGGGGCAGCAGGGAAGAGCCGGC | -1.13
20 | CAGACTGCTGTGTTACTAGAGCCAAGGAAG | -1.05
21 | GCGCATCGGGCGCCAGCGCCCCCGTGTGGC | 0.945
22 | TTCTCAACAGACCCCTGAATTGGTCATAAT | 2.54
23 | TCAAAAGGACTCCCAGAGCATACATGCAGC | -1.11
24 | GCAGCAAGGCCTGAATGAGCTCTGGGGTCC | -0.799

Row | Sequence | binding signal (log2 normalized intensity)
25 | GCCAATTCAGCAAACAAAGGCACTTCTCTC | -0.96
26 | ACCTCCAAGAGGTTTTAGGCTATCAGACAG | -1.12
27 | CCGCTGCTGTCTCGGGGCCAGGTGGGCTGC | -1.05
28 | GCTGAGGCAGAGTTGTTTGCAGAGGGAAAG | -1
29 | GGCTTATTTTAGGAGCCTCCAATCAGGACA | -1.16
30 | GATGGCTATGAAGAAAAACAAGTGGAGTAG | -0.907
31 | TGGCTGGGCCCTGACCTCAAGTGACCTTTG | 7.17
32 | CAAATGAATAATCCCCTCCTGGACTTTGGT | 4.73
33 | TGATTTGTATGATCTTGGGTATATCCTTTA | 1.54
34 | TAGAAGCAGTGGGACAAAGGTCACAGGAAA | 4.42
35 | GAATGTTTTATGTGCTCCATCAGTGGTAAA | 1.82
36 | AAGTGTTCAGCAAATACTAATTCTCCCCCA | 4.01
37 | CATGAAATTGAGATAAACATGAAACAGTCA | 0.00284
38 | GGCCAAAGAGCAAAGGACCAAAAGATATTT | -0.55
39 | AGCCCAACACGGGCGAAAAAGACGCGGTCT | -1.22
40 | TAAACAAAGATACTCTCATCACTTAGGATA | -1.12
41 | CCCTGCTGTGTCACGTACCGGCTAGACAAA | -1.13
42 | TTTTGCCAAAGAGGTCTTATGCTCACATAC | -0.754
43 | ATTAGAGCAACCAGAATGTTCAAAAGTGTG | 1.33
44 | CTTTTCCTTATCATCACATGTGCAAGGGCA | 2.53
45 | CTTGCACTGTAAGATCAAGATTAAGAAGAG | -0.992
46 | GTCCCTGGCCAATCCCAGGGTCAGAGGTCG | 5.85
47 | CTTCCAATGAAAGGTTAACCTGCTGGTTTA | 0.913
48 | TAGAGATAAGGTAACAGGCCAAAGGGCAAG | 3.3

Row | Sequence | binding signal (log2 normalized intensity)
49 | ATCATTCACGTGCCTGAGATTCCTTCAAAG | -1.15
50 | GTGATAATAAATGTGTTTCATCAGTCCAAT | 1.76
51 | GATATTCCAAAAGGGCAGCAGTAACCCCCC | 4.57
52 | ACGACGCTCCTATCATCCCTATCACTCAAG | -0.806
53 | CCCAGGGACTTTGGCCTTACTTGGCCTGTT | 2.62
54 | TCAAAGGTTAATGAGCCCCCTAAAAAGAAA | 3.18
55 | AGGGCTCTCTCACCAGAAAAATGTACATGT | 0.989
56 | TCTAGACCTGGACTTGAAGCCAGACTCTGC | -0.751
57 | CCAGAACCTTGTGCAGTATCCCAGGGACTT | -1.07
58 | TTTTTTCCGAACGCCAGCAGCAGGGTCAGA | 1.1
59 | TTCATGGGTGAAAGGGACTCATCTCCAAAC | -0.725
60 | CTCTTGCTATGCCTTAGCAAACAGACTGGT | 0.115
61 | CAGCCCCAATGGCTAAGGTCACCATGACCA | 2.11
62 | ATCAAATACAGAATCAATGCCTGATTCCAA | -1.06
63 | GCTGGAACTCCTCCGGTCAAGATCAAGTGG | 0.207
64 | CGGCCTCTGGGAAATGTAGTTCCGGAGAAC | -0.704
65 | AGCTATGCCTGAGGCTGAGGTTGCCCAGGG | -1.09
66 | GCAATCATGCACCTGCGGATAATCAAAGGT | -1.05
67 | ACCTGTGTCCCCCAGGTCCAGCCTTTGGGC | 2.67
68 | CTTTTTCTGAGCCTGGGTCACCCCTATAAT | 2.16
69 | CAAGAAGGTCAGAGGTGAGAGCAGAATGAG | -1.18
70 | GAGAGCTGTCTGCTGAGGATGTGGCCCCGA | 2.25
71 | ATCTTCATTTATAGATAAGCACACTAAGGC | -1.04
72 | ACAGAACCTTGTTTTGTCTTCTGTTTGCAA | 0.845

Reference: PMC10726135
